Measurements reported in the supplement of paper PMC10724272.
MIC of invasive clinical C. tropicalis isolates, CLSI broth microdilution (fluconazole 0.12-256 mg/L, up to 1,024 for the azole-resistant cluster and its neighbour group; other ranges not stated); higher = less susceptible. Call: susceptible or wild type [S] / resistant or non-wild type [R] by CLSI breakpoints or cut-offs; intermediate and dose-dependent carry no call. '<=' and '>=' at the end values are inferred; the source marks only some of them. Isolates are numbered anew.

These test systems were tested with CC[C@H](C)C[C@H](C)CCCCCCCCC(=O)N[C@H]1C[C@@H](O)[C@@H](NCCN)NC(=O)[C@@H]2[C@@H](O)CCN2C(=O)[C@H]([C@H](O)CCN)NC(=O)[C@H]([C@H](O)[C@@H](O)c2ccc(O)cc2)NC(=O)[C@@H]2C[C@@H](O)CN2C(=O)[C@H]([C@@H](C)O)NC1=O [caspofungin] (assay: CLSI broth microdilution.).
“Candida tropicalis isolate 54 (ERG11 copies: 2, Erg11p: no key change)” showed an MIC of 0.06 mg/L [S].
Test System “Candida tropicalis isolate 307 (ERG11 copies: 2, Erg11p: no key change)” has an MIC of 0.25 mg/L [S].
In the case of “Candida tropicalis isolate 299 (ERG11 copies: 2, Erg11p: no key change)”, the MIC is reported as 0.06 mg/L [S].
“Candida tropicalis isolate 256 (ERG11 copies: 2, Erg11p: no key change)” gave an MIC of 0.25 mg/L [S].
With “Candida tropicalis isolate 401 (ERG11 copies: 10, Erg11p: Y132F, S154F (heterozygous))” the MIC was 0.03 mg/L [S].
Work on “Candida tropicalis isolate 443 (ERG11 copies: 2, Erg11p: no key change)” yielded an MIC of 0.03 mg/L [S].
In the case of “Candida tropicalis isolate 80 (ERG11 copies: 2, Erg11p: no key change)”, the MIC is reported as 0.06 mg/L [S].
“Candida tropicalis isolate 338 (ERG11 copies: 2, Erg11p: no key change)” showed an MIC of 0.03 mg/L [S].
“Candida tropicalis isolate 411 (ERG11 copies: 2, Erg11p: no key change)” was tested, and the MIC was 0.03 mg/L [S].
Test System “Candida tropicalis isolate 246 (ERG11 copies: 2, Erg11p: no key change)” has an MIC of 0.06 mg/L [S].
Test System “Candida tropicalis isolate 7 (ERG11 copies: 2, Erg11p: no key change)” has an MIC of 0.06 mg/L [S].
Work on “Candida tropicalis isolate 382 (ERG11 copies: 2, Erg11p: no key change)” yielded an MIC of 0.03 mg/L [S].
For “Candida tropicalis isolate 19 (ERG11 copies: 8, Erg11p: Y132F, S154F (homozygous))”, the MIC was 0.06 mg/L [S].
“Candida tropicalis isolate 211 (ERG11 copies: 2, Erg11p: no key change)” showed an MIC of 0.03 mg/L [S].
For “Candida tropicalis isolate 131 (ERG11 copies: 2, Erg11p: no key change)”, the MIC was 0.03 mg/L [S].
With “Candida tropicalis isolate 93 (ERG11 copies: 2, Erg11p: no key change)” the MIC was 0.03 mg/L [S].
“Candida tropicalis isolate 276 (ERG11 copies: 7, Erg11p: Y132F, S154F (heterozygous))” was tested, and the MIC was 0.06 mg/L [S].
Test System “Candida tropicalis isolate 39 (ERG11 copies: 8, Erg11p: Y132F, S154F (heterozygous))” has an MIC of 0.03 mg/L [S].
Work on “Candida tropicalis isolate 94 (ERG11 copies: 2, Erg11p: no key change)” yielded an MIC of 0.06 mg/L [S].
“Candida tropicalis isolate 208 (ERG11 copies: 2, Erg11p: no key change)” showed an MIC of 0.015 mg/L [S].
With “Candida tropicalis isolate 336 (ERG11 copies: 2, Erg11p: no key change)” the MIC was 0.03 mg/L [S].
With “Candida tropicalis isolate 230 (ERG11 copies: 2, Erg11p: no key change)” the MIC was 0.015 mg/L [S].
“Candida tropicalis isolate 181 (ERG11 copies: 2, Erg11p: no key change)” showed an MIC of 0.06 mg/L [S].

What follows are test systems tested with CC[C@@H]([C@H](C)O)n1ncn(-c2ccc(N3CCN(c4ccc(OC[C@@H]5CO[C@@](Cn6cncn6)(c6ccc(F)cc6F)C5)cc4)CC3)cc2)c1=O [posaconazole] (assay: CLSI broth microdilution.).
With “Candida tropicalis isolate 59 (ERG11 copies: 2, Erg11p: no key change)” the MIC was 0.06 mg/L [S].
Test System “Candida tropicalis isolate 269 (ERG11 copies: 6, Erg11p: Y132F, S154F (heterozygous))” has an MIC of 0.5 mg/L [R].
In the case of “Candida tropicalis isolate 301 (ERG11 copies: 2, Erg11p: no key change)”, the MIC is reported as 0.25 mg/L [S].
Work on “Candida tropicalis isolate 137 (ERG11 copies: 2, Erg11p: no key change)” yielded an MIC of 0.25 mg/L [S].
“Candida tropicalis isolate 17 (ERG11 copies: 2, Erg11p: no key change)” showed an MIC of 0.25 mg/L [S].
“Candida tropicalis isolate 425 (ERG11 copies: 2, Erg11p: no key change)” gave an MIC of 0.5 mg/L [R].
Work on “Candida tropicalis isolate 185 (ERG11 copies: 2, Erg11p: no key change)” yielded an MIC of 0.5 mg/L [R].
For “Candida tropicalis isolate 83 (ERG11 copies: 2, Erg11p: no key change)”, the MIC was 0.25 mg/L [S].
“Candida tropicalis isolate 157 (ERG11 copies: 8, Erg11p: Y132F, S154F (heterozygous))” showed an MIC of 1 mg/L [R].
With “Candida tropicalis isolate 288 (ERG11 copies: 2, Erg11p: no key change)” the MIC was 0.25 mg/L [S].
For “Candida tropicalis isolate 164 (ERG11 copies: 2, Erg11p: no key change)”, the MIC was 0.12 mg/L [S].
“Candida tropicalis isolate 303 (ERG11 copies: 2, Erg11p: no key change)” showed an MIC of 0.12 mg/L [S].
With “Candida tropicalis isolate 62 (ERG11 copies: 2, Erg11p: no key change)” the MIC was 0.25 mg/L [S].
“Candida tropicalis isolate 54 (ERG11 copies: 2, Erg11p: no key change)” showed an MIC of 0.25 mg/L [S].
For “Candida tropicalis isolate 307 (ERG11 copies: 2, Erg11p: no key change)”, the MIC was 0.12 mg/L [S].
In the case of “Candida tropicalis isolate 299 (ERG11 copies: 2, Erg11p: no key change)”, the MIC is reported as 0.12 mg/L [S].
In the case of “Candida tropicalis isolate 256 (ERG11 copies: 2, Erg11p: no key change)”, the MIC is reported as 0.25 mg/L [S].
For “Candida tropicalis isolate 401 (ERG11 copies: 10, Erg11p: Y132F, S154F (heterozygous))”, the MIC was 2 mg/L [R].
